{"source": "paper PMC4336329", "about": "(PLoS ONE, 2015)", "note": "The campaign covered roughly 310,000 compounds. About 2,200 (0.71%) showed an effect of 50% or more. The effect is printed as a negative number. The list shows a part of the results.", "data": [{"molecular_target": "human ether-à-go-go-related gene (hERG) potassium channel (human, UniProt Q12809)", "sequence (Q12809 whole entry, looked up)": "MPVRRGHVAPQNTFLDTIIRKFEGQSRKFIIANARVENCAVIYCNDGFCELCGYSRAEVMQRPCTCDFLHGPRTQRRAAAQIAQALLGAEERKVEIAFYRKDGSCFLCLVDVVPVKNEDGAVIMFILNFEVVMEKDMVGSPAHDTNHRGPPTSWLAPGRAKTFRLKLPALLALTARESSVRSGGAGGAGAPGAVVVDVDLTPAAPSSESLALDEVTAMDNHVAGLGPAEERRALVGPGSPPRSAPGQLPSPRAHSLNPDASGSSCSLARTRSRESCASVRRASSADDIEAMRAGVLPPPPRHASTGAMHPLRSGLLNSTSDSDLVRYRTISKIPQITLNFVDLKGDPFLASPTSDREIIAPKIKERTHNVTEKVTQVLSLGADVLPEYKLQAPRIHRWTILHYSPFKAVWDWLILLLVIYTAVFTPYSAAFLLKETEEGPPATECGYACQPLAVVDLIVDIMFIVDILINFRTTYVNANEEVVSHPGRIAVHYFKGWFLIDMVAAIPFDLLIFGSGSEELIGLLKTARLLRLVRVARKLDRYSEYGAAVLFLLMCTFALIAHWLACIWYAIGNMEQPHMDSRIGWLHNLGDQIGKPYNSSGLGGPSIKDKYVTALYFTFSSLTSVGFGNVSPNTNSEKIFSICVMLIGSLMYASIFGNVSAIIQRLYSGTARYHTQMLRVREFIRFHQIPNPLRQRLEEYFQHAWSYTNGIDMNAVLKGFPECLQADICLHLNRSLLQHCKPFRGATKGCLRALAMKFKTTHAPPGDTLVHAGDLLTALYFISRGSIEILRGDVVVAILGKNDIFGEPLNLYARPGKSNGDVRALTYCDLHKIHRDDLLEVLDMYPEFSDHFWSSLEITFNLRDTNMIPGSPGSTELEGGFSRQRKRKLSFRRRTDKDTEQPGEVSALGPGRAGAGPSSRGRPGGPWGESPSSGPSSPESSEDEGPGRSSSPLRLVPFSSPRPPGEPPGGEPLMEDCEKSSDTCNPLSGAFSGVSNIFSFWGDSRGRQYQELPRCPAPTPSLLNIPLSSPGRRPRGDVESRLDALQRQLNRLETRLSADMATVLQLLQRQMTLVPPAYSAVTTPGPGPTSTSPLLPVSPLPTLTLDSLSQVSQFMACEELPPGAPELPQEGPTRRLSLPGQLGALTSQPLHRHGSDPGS", "assay": "primary screen, population patch clamp on CHO cells stably expressing hERG", "units": {"hERG current change (%, negative = inhibition) at 1uM": "%"}, "values": [{"smiles": "COc1cccc(NC(=O)N2CCCC2C(=O)NC2CCCC2)c1", "note": "(centres unmarked)", "hERG current change (%, negative = inhibition) at 1uM": 5.96}, {"smiles": "NS(=O)(=O)c1cccc(NC(=S)NC(=O)C23CC4CC(CC(C4)C2)C3)c1", "hERG current change (%, negative = inhibition) at 1uM": 17.2}, {"smiles": "CSc1ccc(S(=O)(=O)NCc2ccc(C)cc2)cc1", "hERG current change (%, negative = inhibition) at 1uM": 5.73}, {"smiles": "O=C(CCCOc1ccc(Cl)cc1)N1CCCCCC1", "hERG current change (%, negative = inhibition) at 1uM": -0.946}, {"smiles": "COc1ccc(S(=O)(=O)N2CCOCC2)cc1NC(=O)CCCOc1ccc(Cl)cc1C", "hERG current change (%, negative = inhibition) at 1uM": 13.1}, {"smiles": "CCCCc1c(C)[nH]c2nc3ccccc3n2c1=O", "hERG current change (%, negative = inhibition) at 1uM": 8.48}, {"smiles": "CCNC(=O)NC(=O)C(C)Sc1nnc(COc2ccccc2Cl)o1", "note": "(centres unmarked)", "hERG current change (%, negative = inhibition) at 1uM": 7.66}, {"smiles": "CCCN(CCC)C(=O)COc1cc(=O)n(CC)c2ccccc12", "hERG current change (%, negative = inhibition) at 1uM": 1.52}, {"smiles": "Cc1ccc(C(C)C)c(OCCCN(C)Cc2ccccc2)c1.O=C(O)C(=O)O", "hERG current change (%, negative = inhibition) at 1uM": 9.67}, {"smiles": "O=C1CCc2cc(S(=O)(=O)Nc3ccccc3)cc3c2N1CCC3", "hERG current change (%, negative = inhibition) at 1uM": 10.9}, {"smiles": "Cc1cccc(-c2noc(CN(C)C(=O)COc3ccccc3)n2)c1", "hERG current change (%, negative = inhibition) at 1uM": 5.61}, {"smiles": "Clc1ccc(OCCCn2cncn2)cc1Cl", "hERG current change (%, negative = inhibition) at 1uM": 2.79}, {"smiles": "CCOC(=O)C1CN(S(=O)(=O)c2ccc(OC)cc2)c2ccccc2O1", "note": "(centres unmarked)", "hERG current change (%, negative = inhibition) at 1uM": 20.2}, {"smiles": "Cc1nnc(SCc2nc3ccccc3s2)n1-c1ccccc1", "hERG current change (%, negative = inhibition) at 1uM": 6.72}, {"smiles": "CC(C)C(NC(=O)C12CC3CC(CC(C3)C1)C2)C(=O)N/N=C/C1=C(N2CCOCC2)C(=C\\c2ccc([N+](=O)[O-])cc2)/CC1", "note": "(centres unmarked)", "hERG current change (%, negative = inhibition) at 1uM": 12.9}, {"smiles": "O=C(Cn1ccc2ccccc2c1=O)NCCC(=O)Nc1ccc(F)cc1F", "hERG current change (%, negative = inhibition) at 1uM": 8.02}, {"smiles": "CCOc1cc(CNC(C)C(O)c2ccccc2)cc(Cl)c1OCC.Cl", "note": "(centres unmarked)", "hERG current change (%, negative = inhibition) at 1uM": 16}, {"smiles": "Cn1nc(C(F)(F)F)c(C#N)c1N1CCN(c2ccc(F)cc2)CC1", "hERG current change (%, negative = inhibition) at 1uM": -0.293}, {"smiles": "Cc1ccc(C(=O)C[n+]2cc(-c3ccccc3)n3c2CCCCC3)cc1.[Br-]", "hERG current change (%, negative = inhibition) at 1uM": 10.3}, {"smiles": "CCn1c(=O)c2cc(C(=O)NCCN(C)C)sc2c2ccccc21", "hERG current change (%, negative = inhibition) at 1uM": 13.4}, {"smiles": "COc1ccc(S(=O)(=O)N2C(=O)/C(=C3\\SC(N)=NC3=O)c3ccccc32)cc1", "hERG current change (%, negative = inhibition) at 1uM": 9.83}, {"smiles": "Cc1sc2ncnc(SCC(=O)Nc3ccc(CN4CCCC4)cc3)c2c1C", "hERG current change (%, negative = inhibition) at 1uM": -18.3}, {"smiles": "CC1(C)CC(NC(=O)c2ccc(Cl)cc2)CC(C)(C)N1", "hERG current change (%, negative = inhibition) at 1uM": 14.5}, {"smiles": "COc1ccc(Nc2cc(C)nc3ncnn23)c(OC)c1", "hERG current change (%, negative = inhibition) at 1uM": 12.6}, {"smiles": "O=[N+]([O-])c1cccc(C2=NC(c3ccccc3)CO2)c1", "note": "(centres unmarked)", "hERG current change (%, negative = inhibition) at 1uM": 5.27}, {"smiles": "Cc1cc(C)c(C2=NOC(O)(C(F)(F)F)C2)c(=O)[nH]1", "note": "(centres unmarked)", "hERG current change (%, negative = inhibition) at 1uM": 6.55}, {"smiles": "Cc1onc(-c2ccccc2Cl)c1C(=O)Nc1cccc(S(=O)(=O)NC2=NCCC2)c1", "hERG current change (%, negative = inhibition) at 1uM": 0.0416}, {"smiles": "Cc1sc2nc(CSc3nc4ccccc4s3)[nH]c(=O)c2c1C", "hERG current change (%, negative = inhibition) at 1uM": 5.76}, {"smiles": "Cc1ccc2c(c1)=NC(=O)/C(=C/c1c(O)[nH]c(=O)[nH]c1=O)C=2", "hERG current change (%, negative = inhibition) at 1uM": 7.29}, {"smiles": "CCOC(=O)c1c(C)oc2ccc(OCC(=O)N(CC)CC)cc12", "hERG current change (%, negative = inhibition) at 1uM": 0.753}, {"smiles": "COc1cc(NC(=O)C2CC2C)c(C(=O)O)cc1OC", "note": "(centres unmarked)", "hERG current change (%, negative = inhibition) at 1uM": 7.09}, {"smiles": "COC(C/C=C\\C(=O)COCc1ccccc1)OC", "hERG current change (%, negative = inhibition) at 1uM": 12.8}, {"smiles": "Cc1cc(C(F)F)n2ncc(C(=O)O)c2n1", "hERG current change (%, negative = inhibition) at 1uM": 0.0824}, {"smiles": "Cc1cc(=S)c2ccccc2[nH]1", "hERG current change (%, negative = inhibition) at 1uM": 20.8}, {"smiles": "Cc1ccccc1NC(=O)CN1C(=O)N/C(=C\\c2ccc(N3CCOCC3)c(F)c2)C1=O", "hERG current change (%, negative = inhibition) at 1uM": 5.07}, {"smiles": "CCOC(=O)N1CCN(C/C(C)=C/c2ccccc2)CC1", "hERG current change (%, negative = inhibition) at 1uM": 1.78}, {"smiles": "COc1ccc(N=C2SCCCN2C)cc1.I", "hERG current change (%, negative = inhibition) at 1uM": 15.8}, {"smiles": "CCN1CCN(CCOc2cccc(Cl)c2Cl)CC1.O=C(O)C(=O)O", "hERG current change (%, negative = inhibition) at 1uM": 12.8}, {"smiles": "COc1ccc2c(c1OC)C(=O)N(c1ccc(C)c(C)c1)C2=O", "hERG current change (%, negative = inhibition) at 1uM": 9.78}, {"smiles": "CC1CCC(C(=O)NC(C(=O)NCCc2ccc(S(N)(=O)=O)cc2)C(C)C)CC1", "note": "(centres unmarked)", "hERG current change (%, negative = inhibition) at 1uM": 0.0462}, {"smiles": "Cc1nc(C(=O)N2CCCC(C(=O)c3ccc(Cl)cc3)C2)cs1", "note": "(centres unmarked)", "hERG current change (%, negative = inhibition) at 1uM": 10.3}, {"smiles": "Cc1cccc(-n2c(C)cc(/C=N\\NC(=O)c3cccs3)c2C)c1", "hERG current change (%, negative = inhibition) at 1uM": 7.17}, {"smiles": "COc1ccc(-c2nc(N)nc(C(F)(F)F)c2-c2ccccc2OC)c(O)c1", "hERG current change (%, negative = inhibition) at 1uM": 0.588}, {"smiles": "CCN(CC)C(=O)CCCOc1ccc(Cl)cc1Cl", "hERG current change (%, negative = inhibition) at 1uM": 5.56}, {"smiles": "O=C(CN1C(=O)NC2(CCOc3ccccc32)C1=O)Nc1ccc(Br)cc1F", "note": "(centres unmarked)", "hERG current change (%, negative = inhibition) at 1uM": 7.3}, {"smiles": "COc1ccccc1CNC(=O)C1CCN(S(=O)(=O)c2cccc([N+](=O)[O-])c2)CC1", "hERG current change (%, negative = inhibition) at 1uM": -3.01}, {"smiles": "Cc1[nH]n2cnnc2c(=O)c1Br.O=S(=O)(O)O", "hERG current change (%, negative = inhibition) at 1uM": 6.34}, {"smiles": "CC(=O)c1cccc(NC(=O)c2cc(Cl)sc2Cl)c1", "hERG current change (%, negative = inhibition) at 1uM": 12.7}, {"smiles": "O=C(Nc1ccc(NC(=O)c2cccs2)cc1)c1ccco1", "hERG current change (%, negative = inhibition) at 1uM": 7.46}, {"smiles": "COc1ccc(CNC(=O)CN2CCN(S(=O)(=O)c3cccs3)CC2)cc1OC", "hERG current change (%, negative = inhibition) at 1uM": 7.36}, {"smiles": "CN1CCCC(C(=O)C(C#N)c2ccccc2)C1", "note": "(centres unmarked)", "hERG current change (%, negative = inhibition) at 1uM": 11.1}, {"smiles": "COc1ccc(S(=O)(=O)N2CCN(C(=O)c3ccc(NC(C)=O)cc3)CC2)cc1", "hERG current change (%, negative = inhibition) at 1uM": 11.2}, {"smiles": "O=C(c1ccc2c(c1)OCO2)N(c1ccc(Br)cc1)C1C=CS(=O)(=O)C1", "note": "(centres unmarked)", "hERG current change (%, negative = inhibition) at 1uM": 3.92}, {"smiles": "COCCN1CN(S(=O)(=O)c2cccc(Cl)c2)c2nc3ccccc3nc21", "hERG current change (%, negative = inhibition) at 1uM": 7.6}, {"smiles": "Oc1cc(O)cc(/C=C/c2ccc(O)cc2O)c1", "hERG current change (%, negative = inhibition) at 1uM": 7.9}, {"smiles": "Cc1cccc(CC(=O)OCn2nnc3ccccc3c2=O)c1", "hERG current change (%, negative = inhibition) at 1uM": -6.38}, {"smiles": "CCN1CCCC1CNC(=O)CN1C(=O)COc2ccc(C)cc21", "note": "(centres unmarked)", "hERG current change (%, negative = inhibition) at 1uM": -0.512}, {"smiles": "COCC(=O)Nc1cc(Cl)c(OC)cc1OC", "hERG current change (%, negative = inhibition) at 1uM": 6.45}, {"smiles": "Cc1ccc(C(=O)C2CCOC(C)(C)C2)cc1", "note": "(centres unmarked)", "hERG current change (%, negative = inhibition) at 1uM": 7.21}]}]}
